The full ranking holds about 33,000 sequences; the median of “E-score (-0.5 to 0.5)” is about -0.016, and the highest 2% start at about 0.31. This is one part of the list.
Biological target: Cst6 (UniProt P40535)
Assay: PBM E-score (8-mer binding enrichment) (E-score (-0.5 to 0.5)); higher = stronger / more preferred TF binding; most listed sequences are background and not binding sites
Details: protein concentration: 200 nM; construct: GST-DNA-binding domain
Protocol: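 Universal 'all 10-mer' protein binding microarrays (Agilent AMADID 015681) probed with GST-tagged S. cerevisiae TFs (full-length or DBD) made by in vitro transcription/translation (PURExpress), about 100-200 nM. Bound TF was detected with fluorescent anti-GST. Each ungapped 8-mer (which stands for itself and its reverse complement) is scored by the PBM enrichment score (E-score), a modified Wilcoxon-Mann-Whitney statistic from -0.5 to +0.5, computed with the Universal PBM Analysis Suite. Scale: above 0.35 generally sequence-specific binding.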

Sequence | PBM E-score
ATACGCGA | 0.0401
CGCGGTCA | -0.0578
ACTTACAG | 0.00545
ACATCGGG | -0.173
GAACCTAC | -0.106
ACTTAGTA | 0.154
AAGCCTGA | -0.126
GTACTAGA | 0.174
GCTGACAA | 0.11
AAAATCCC | -0.0336
CTTGCAAC | 0.063
ATACAGAG | -0.0421
GCCGCAAC | 0.138
AGTACGTG | -0.125
ATCAACGC | 0.13
GGTGCCCA | -0.225
CTACGTGA | 0.0384
CCCAACTA | -0.0465
CCCGAGAG | -0.215
AATTCGCC | 0.218
ATAGCTGC | 0.0845
GCGGGCAA | -0.119
CATTCGTC | 0.148
GGTTGGCA | -0.203
CTAAGTCA | 0.00474

Sequence | PBM E-score
GTAGATGA | 0.181
TGGATCCA | -0.124
GGCGAAAC | -0.129
GATCCCAC | -0.0436
ATTTGCGC | 0.0678
AATCTTAG | 0.0938
AGTGTTAT | 0.0858
AAAGAGGG | -0.0976
CTGCCATA | 0.00534
AGCGCTAC | -0.199
AGCATATC | 0.0899
GCGTTTGA | -0.00718
AATATTGT | 0.306
AATCTAAC | 0.108
TAACCATA | 0.035
ACTACGTA | 0.343
ACACCATA | 0.0465
CCCATCTA | -0.135
ATGATCCA | -0.0761
AGATACTA | -0.0394
AGGCCCTA | -0.28
GAACAGCC | -0.215
ACATTCGG | -0.086
CACTTGGA | -0.065
AGAGTCAC | 0.0294

Sequence | PBM E-score
ACTAGTAA | 0.211
CAGGTAGG | -0.16
AACCATAC | -0.0951
TGACTACA | 0.228
CAACTGCG | -0.0363
CTCCCTCC | -0.317
GAGCAAAA | 0.0129
CACTACGC | -0.0437
ATCCAGGA | -0.206
GAGAAAGA | 0.00015
TCTAGGAA | -0.0398
CGAAAACC | 0.122
AATATTAT | 0.242
CGTTAACC | 0.166
GACTGAAA | 0.0376
AGCCATCA | 0.0745
AATACTTC | 0.0495
CGTAACCC | 0.172
ACATCGTC | 0.163
CATTGTCC | -0.0804
GTCGCACA | -0.166
GCGCCAAA | -0.042
CCTCGGAC | -0.234
ACTCGACG | 0.097
GCCTCCGC | -0.173

Sequence | PBM E-score
GCCGTCCC | 0.0769
CCGATTAA | 0.0604
CATATGGG | 0.0397
CAAATCAC | -0.00079
AGATGCCT | -0.0431
AGTAAACG | 0.0396
CGATGAAA | 0.178
GTAGATTA | 0.196
CTAGACAC | 0.0253
ATAGGCTA | -0.0243
CCTAATTC | -0.107
TGCAGGAA | 0.0886
AAAAACCG | 0.0586
AAGACGGA | 0.00374
TATCTGAA | 0.0183
CTCGACCC | -0.224
AATTTCGA | 0.0157
ATAGGAGC | -0.266
GAAGAGAA | 0.0248
CTCTTTGC | -0.0971
AACAGTTC | 0.032
GTTAACAA | -0.0128
CGGTGCAG | -0.287
ACCTCTAC | -0.0692
GGACCCCA | -0.177

Sequence | PBM E-score
GAGAGGTA | -0.24
CAACTTTC | 0.0894
ATGTTAGA | 0.0207
CTATTATA | 0.148
CCACTACC | -0.177
GGAGCGCC | -0.266
CCTCCGAC | -0.439
CCCGAGCC | -0.246
CTAACACA | 0.132
GCTCCTTA | -0.147
TCGCCCCA | -0.018
AACTACGA | 0.0875
AAGCACTA | 0.0023
CACTAGGA | -0.147
TATTGGCA | -0.00661
AGCAGGTC | -0.0387
AGACTGCA | -0.281
CCAGGATC | -0.258
ATCACTCG | 0.2
AGCTGCAG | -0.0265
GTTTTAGA | 0.195
CCTAAAGG | -0.0902
CATCTGTC | -0.0866
CCAGTCCA | -0.361
CCCAAATC | -0.157

Sequence | PBM E-score
AACAGGAA | 0.03
ATACCAGG | -0.225
AGATTAAC | 0.118
CCACGGGC | -0.244
AGTTTGAA | 0.0915
CTCTCAGC | -0.0648
CCCGCTCG | -0.16
ACGCAGAA | 0.134
ACAATTGA | 0.146
GTTTAAGA | -0.032
ACCGCAGC | -0.0993
ATGTAGAC | -0.0216
ATAGTTAG | 0.0657
TAGGATGA | 0.199
GTATTGTA | 0.245
CTCAAGAG | -0.284
AGCTCTAA | -0.115
AGCATGCA | -0.103
CACTAATA | 0.211
AGACACCT | -0.151
ATATTGTA | 0.149
CCTTACCG | 0.00947
CACACGGA | 0.0766
GGGCTACC | -0.139
CTGCGACA | -0.0645

Sequence | PBM E-score
ATAGTACG | 0.0413
CAATGATC | 0.095
ATTGGACA | 0.0169
AAGCCAAG | -0.241
CATCGATG | 0.187
ACACGTTA | 0.126
AAAAATTC | 0.186
AAAAGCAC | -0.19
ACCATAGC | -0.0917
TAACAACA | 0.0959
CTTGTTGC | 0.0961
ATTAGCCG | 0.026
CACGTGCG | -0.038
CACCTCCA | 0.0498
ACCTAGCG | -0.147
ATAGCTGG | -0.172
AGGGGCGG | -0.0232
CAATAGGG | -0.159
CGAGTCCC | -0.194
AAACCCAC | 0.0356
ACATTGTC | 0.148
CACGTAAG | 0.292

Reference: the supplement of paper PMC3334620
